The record followed here is publication PMC4336329 (PLoS ONE, 2015).

The structures appear in SMILES notation. Screen size: about 310,000 compounds; about 14,000 (4.5%) showed an effect of 50% or more. Effects have a minus sign here. The list shows a part of the results.
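Note: peak tail current of the secondary pulse compared with the same well before compound.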

The target in this assay is human ether-à-go-go-related gene (hERG) potassium channel (human, UniProt Q12809). The assay is described as follows: primary screen, population patch clamp on CHO cells stably expressing hERG.
Sequence of human ether-à-go-go-related gene (hERG) potassium channel (Q12809 whole entry, looked up): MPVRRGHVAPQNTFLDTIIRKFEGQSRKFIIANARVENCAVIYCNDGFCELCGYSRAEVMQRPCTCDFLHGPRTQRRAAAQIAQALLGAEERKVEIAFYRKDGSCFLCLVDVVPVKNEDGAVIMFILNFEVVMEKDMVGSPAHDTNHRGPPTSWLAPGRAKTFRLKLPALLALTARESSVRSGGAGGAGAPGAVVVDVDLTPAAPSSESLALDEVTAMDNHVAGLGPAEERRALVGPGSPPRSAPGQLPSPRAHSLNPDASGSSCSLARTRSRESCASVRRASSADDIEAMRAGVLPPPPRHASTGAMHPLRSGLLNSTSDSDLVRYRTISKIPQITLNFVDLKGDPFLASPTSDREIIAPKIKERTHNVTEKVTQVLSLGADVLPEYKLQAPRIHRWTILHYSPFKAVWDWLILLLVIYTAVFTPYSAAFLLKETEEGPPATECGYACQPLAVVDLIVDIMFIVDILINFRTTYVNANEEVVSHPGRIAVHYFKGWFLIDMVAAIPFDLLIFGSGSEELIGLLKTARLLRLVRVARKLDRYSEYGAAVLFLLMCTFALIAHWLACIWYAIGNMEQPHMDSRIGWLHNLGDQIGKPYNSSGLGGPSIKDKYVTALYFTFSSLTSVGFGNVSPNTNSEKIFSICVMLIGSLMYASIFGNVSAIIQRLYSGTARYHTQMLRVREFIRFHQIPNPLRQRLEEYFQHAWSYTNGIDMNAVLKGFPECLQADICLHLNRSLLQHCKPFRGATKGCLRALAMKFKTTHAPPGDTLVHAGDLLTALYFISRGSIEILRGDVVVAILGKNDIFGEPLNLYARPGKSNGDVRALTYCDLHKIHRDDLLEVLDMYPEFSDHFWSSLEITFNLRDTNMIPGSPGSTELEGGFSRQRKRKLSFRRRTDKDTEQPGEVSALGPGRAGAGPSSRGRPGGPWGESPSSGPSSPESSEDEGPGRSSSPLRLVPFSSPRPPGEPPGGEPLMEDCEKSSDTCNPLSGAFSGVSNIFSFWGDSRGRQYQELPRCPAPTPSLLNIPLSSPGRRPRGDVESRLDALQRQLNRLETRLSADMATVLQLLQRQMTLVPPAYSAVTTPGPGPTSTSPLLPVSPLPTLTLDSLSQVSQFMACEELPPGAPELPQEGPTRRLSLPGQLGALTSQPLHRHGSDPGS
With `CCC1CCCCN1C(=O)CCS(=O)(=O)c1ccc2c(c1)CCN2C(C)=O` (stereo not shown), the “hERG current change (%, negative = inhibition) at 10uM” value came out at 11.1%.

For the compound `O=[N+]([O-])c1ccc(-c2cn3ccccc3n2)cc1`, the “hERG current change (%, negative = inhibition) at 10uM” value amounted to 4.52%. The figure for `O=C(CSc1nc(Nc2ccccc2)nc(N2CCOCC2)n1)Nc1ccc(Br)cc1F` is 12%. In the case of `CCOc1ccc(C(=O)Nc2ccc(NC(=O)c3ccccc3)c(C)c2)cc1[N+](=O)[O-]`, the “hERG current change (%, negative = inhibition) at 10uM” value was found to be 13.5%. With `CCC(=O)Nc1cc(C(F)(F)F)ccc1N1CCCC1`, the “hERG current change (%, negative = inhibition) at 10uM” value turned out to be 1.46%. Regarding `CCN(CC)CC(=O)Nc1ccc(-c2ccc(NC(=O)CN(CC)CC)c(OC)c2)cc1OC`, the “hERG current change (%, negative = inhibition) at 10uM” value was found to be 10.7%. The result for `COc1ccccc1NC(=O)NC1(C(=O)N2CCCCCC2)CCCCC1` reads 13%; that for `Cl.OC(COCc1ccc(Cl)cc1)CN1CCN(c2ccccn2)CC1` (stereo not shown), -66.4%; that for `O=C(CSc1ccccc1Cl)NC1CCCc2ccccc21` (stereo not shown), -1.17%. The result for `Cc1cc(COc2ccccc2)oc1C(=O)O` reads 16.1%; that for `CCOC(=O)c1nn(-c2ccc(C)cc2)c2nc(Nc3ccccc3)cc(=O)n12`, 21.9%. The result for `Cc1ccc(C(=O)N/C(=C/c2ccco2)C(=O)NCCc2c[nH]c3ccccc23)cc1C` reads -12.8%.

On to `C=C1CCN([C@H](C(=O)NCc2ccc(Cl)c(Cl)c2)C(C)C)S(=O)(=O)c2ccccc21`, for which the “hERG current change (%, negative = inhibition) at 10uM” value is listed as -15.1%. The result for `COc1ccc(-n2nc3c(N4CCC(C(=O)NCCc5ccco5)CC4)nnc(C)c3c2C)cc1` reads 2.45%; that for `COc1cc(C(C(=O)NCC2CCCO2)N(C(=O)Cn2nnc3ccccc32)c2ccc(C(C)=O)cc2)ccc1O` (stereo not shown), 17.4%; that for `COc1ccc(C2CC(c3ccc(OC)cc3)n3nc(NC(=O)c4cccs4)nc3N2)cc1` (stereo not shown), -13.9%.

Take `CC1CCN(S(=O)(=O)c2ccc(NC(=S)NC(=O)c3ccc(Cl)cc3)cc2)CC1`: the “hERG current change (%, negative = inhibition) at 10uM” value is -5.12%. Consider `Cc1ccc(Oc2ccc(Cl)cc2NC(=O)c2ccc(F)cc2F)cc1`, for which the “hERG current change (%, negative = inhibition) at 10uM” value was 5.94%.

Regarding `Cn1c(=O)c2sccc2n2c(CCCC(=O)NCc3ccco3)nnc12`, the “hERG current change (%, negative = inhibition) at 10uM” value is on record as -1.92%. On to `Cc1nc2ccc(S(=O)(=O)NCC(=O)NCc3ccc4c(c3)OCO4)cc2s1`, for which the “hERG current change (%, negative = inhibition) at 10uM” value is reported as -2.41%. The figure for `COc1ccc(S(=O)(=O)N2CCOCC2)cc1NC(=O)Cc1c(F)cccc1Cl` is 8.42%; for `O=C(CCNC(=O)c1ccccc1Cl)N/N=C\c1ccc(O)cc1` it is -13.8%. The figure for `CCn1c(Cc2ccccc2)nnc1SC(C)C(=O)NC1CC1` (stereo not shown) is -0.178%. For the compound `Oc1c(Br)cc(Br)cc1CNc1nccs1`, the “hERG current change (%, negative = inhibition) at 10uM” value was 11.7%. In the case of `CC1(C(=O)N2CCOCC2)CCCCC1`, the “hERG current change (%, negative = inhibition) at 10uM” value was found to be 11.6%.

In the case of `COc1ccc(NC(=O)c2oc3cc(C)c(C)cc3c2C)c(OC)c1`, the “hERG current change (%, negative = inhibition) at 10uM” value is reported as 16.8%.

Consider `COc1c(C)cc(C(=O)C2CCCN(Cc3cnc(C)s3)C2)cc1C` (stereo not shown), for which the “hERG current change (%, negative = inhibition) at 10uM” value was -7.68%.

Take `COc1cccc(/C=N/c2oc(-c3ccccc3)cc2C#N)c1O`: the “hERG current change (%, negative = inhibition) at 10uM” value is reported as 11.9%. The result for `Brc1ccc(-c2csc(N/N=C/c3cccnc3)n2)cc1` reads 19.6%; that for `O=C(C1CCC(=O)N(C2CCCC2)C1)N1CCN(Cc2cccc(F)c2)CC1` (stereo not shown), 0.172%.

With `CC[C@@]1(O)C(=O)OCc2c1cc1n(c2=O)Cc2cc3c(NC(=O)CN)cccc3nc2-1.Cl`, the “hERG current change (%, negative = inhibition) at 10uM” value is 16.8%.

In the case of `Cc1ccc(NC(=O)/C=C/c2ccc([N+](=O)[O-])s2)c(C)c1`, the “hERG current change (%, negative = inhibition) at 10uM” value was -3.74%. The figure for `CCCCOc1ccc(/C=C/C(=O)Nc2ccc(C(N)=O)cc2)cc1` is 8.81%; for `Cc1nc2ccccc2c(=O)n1/N=C/c1cn(-c2ccccc2)nc1-c1cccs1` it is 5.81%; for `Cc1cccc(C2c3[nH]c4ccccc4c3CCN2C(=O)c2nn(C)c(=O)c3ccccc23)n1` (stereo not shown) it is -19.5%. The result for `Cc1cc(/C(O)=C2\C(=O)C(=O)N(CCN(C)C)C2c2ccncc2)ccc1OCc1ccccc1` (stereo not shown) reads 3.21%; that for `CCc1cc(C(=O)NN2C(=O)NC3(CCCCC3)C2=O)sc1C`, 4.66%. On to `CC(C)(C)c1ccc(-c2n[nH]c(=S)n2C2CCCC2)cc1`, for which the “hERG current change (%, negative = inhibition) at 10uM” value is on record as 4.01%. The result for `CC(C)CN(C(=O)CCC(=O)OCC(=O)c1ccc(F)c(F)c1)c1c(N)n(CC(C)C)c(=O)[nH]c1=O` reads 6.13%; that for `N#CCSc1ccccc1NC(=O)COC(=O)Cc1c[nH]c2ccccc12`, 2.6%; that for `CCN1CCN(C(C)CCc2ccccc2)CC1` (stereo not shown), -17.7%. Regarding `CNc1c(N)c(=O)oc2ccccc12`, the “hERG current change (%, negative = inhibition) at 10uM” value is reported as 10.9%. The result for `Cn1c(-c2ccc(F)cc2)cnc1SCC(=O)N1CCCCC1` reads 8.09%.
